# The campaign covered roughly 310,000 compounds. About 2,200 (0.71%) showed an effect of 50% or more. The effect is printed as a negative number. The list shows a part of the results.
# Target: human ether-à-go-go-related gene (hERG) potassium channel (human, UniProt Q12809)
# Assay: primary screen, population patch clamp on CHO cells stably expressing hERG
# Chain of human ether-à-go-go-related gene (hERG) potassium channel (Q12809 whole entry, looked up): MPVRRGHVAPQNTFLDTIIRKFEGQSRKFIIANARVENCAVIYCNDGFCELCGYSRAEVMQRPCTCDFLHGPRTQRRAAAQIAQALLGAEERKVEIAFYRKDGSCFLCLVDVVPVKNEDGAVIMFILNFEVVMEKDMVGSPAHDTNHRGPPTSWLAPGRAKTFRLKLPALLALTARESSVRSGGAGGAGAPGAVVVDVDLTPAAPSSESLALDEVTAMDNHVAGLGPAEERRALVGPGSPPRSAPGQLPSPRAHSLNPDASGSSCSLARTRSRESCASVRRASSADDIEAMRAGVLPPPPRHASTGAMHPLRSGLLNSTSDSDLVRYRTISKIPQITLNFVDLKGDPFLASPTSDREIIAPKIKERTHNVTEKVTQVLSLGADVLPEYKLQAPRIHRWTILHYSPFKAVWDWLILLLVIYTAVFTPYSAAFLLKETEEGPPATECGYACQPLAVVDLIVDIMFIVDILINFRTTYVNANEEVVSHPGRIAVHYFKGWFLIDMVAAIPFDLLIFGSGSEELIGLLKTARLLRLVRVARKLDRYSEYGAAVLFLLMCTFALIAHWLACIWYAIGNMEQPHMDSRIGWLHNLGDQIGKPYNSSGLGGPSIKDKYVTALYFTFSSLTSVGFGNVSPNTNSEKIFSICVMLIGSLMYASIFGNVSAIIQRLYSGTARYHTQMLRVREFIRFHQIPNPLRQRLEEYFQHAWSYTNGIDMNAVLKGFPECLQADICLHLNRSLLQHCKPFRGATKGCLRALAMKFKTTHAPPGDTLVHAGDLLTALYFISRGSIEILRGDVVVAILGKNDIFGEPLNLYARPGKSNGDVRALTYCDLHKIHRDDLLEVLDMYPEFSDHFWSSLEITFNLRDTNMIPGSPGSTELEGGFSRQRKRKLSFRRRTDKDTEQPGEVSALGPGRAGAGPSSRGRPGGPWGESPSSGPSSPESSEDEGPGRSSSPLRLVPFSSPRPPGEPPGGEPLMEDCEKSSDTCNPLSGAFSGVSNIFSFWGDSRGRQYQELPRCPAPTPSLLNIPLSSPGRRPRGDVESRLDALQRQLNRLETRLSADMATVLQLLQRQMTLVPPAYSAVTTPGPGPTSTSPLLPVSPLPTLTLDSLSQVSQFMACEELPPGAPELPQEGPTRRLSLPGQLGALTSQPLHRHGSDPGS
row,Structure (SMILES),"hERG current change (%, negative = inhibition) at 1uM"
1,CC1(C)Cc2c(cnn2-c2cccc(F)c2)C(NC(=O)c2ccc[n+]([O-])c2)C1 (stereo not drawn),6.78%
2,Nn1c(SCC(=O)Nc2ccc(Oc3ccccc3)cc2)nnc1C1CC1,-1.39%
3,Cc1cc(C)nc(NC(=O)c2c(-c3c(Cl)cccc3Cl)noc2C)n1,12%
4,COc1ccc2sc(NC(=O)NC(=O)c3c(Cl)cccc3Cl)nc2c1,8.81%
5,CN(C)c1ccc(C(=O)OCC(=O)N2CCCCCC2)cc1,15.7%
6,O=C(COC(=O)/C=C/c1ccccc1)NNC(=O)c1ccc([N+](=O)[O-])cc1,-2.04%
7,O=C(NCC(c1ccco1)N1CCCCC1)c1ccc(COc2ccccc2)cc1 (stereo not drawn),18.7%
8,CCN(C(=O)CSc1nnc2c3ccccc3n(CC)c2n1)C1CCS(=O)(=O)C1 (stereo not drawn),6.14%
9,CCC(C)N1C(=O)c2ccccc2C1C(=O)NC1CCCCCC1 (stereo not drawn),7.44%
10,Cc1ccccc1N(C(=O)c1snc(C(N)=O)c1N)C(C)C(=O)NC1CCCCC1 (stereo not drawn),4.04%
11,COc1ccc(C2C=C(C)Nc3nc(SC)nn32)cc1 (stereo not drawn),8.75%
12,Cc1ccc(-n2c(=S)[nH]c3[nH]ncc3c2=O)cc1,-1.57%
13,Cc1ccc(NC(=O)Cn2c(C)cc(C)c(C#N)c2=O)c(Cl)c1,11.5%
14,CC(C)(CNC(=O)C1c2ccccc2-c2ccccc21)N1CCOCC1,10.7%
15,COc1ccc(N(C)S(=O)(=O)c2cccc(C(=O)OCC(=O)NCc3ccccc3OC)c2)cc1,11.8%
16,C/C(=N\N(C)C)C1=C(O)c2ccccc2C1=O,12.1%
17,COc1ccc(CCN(C)C(=O)CCc2nnc(-c3ccccc3)o2)cc1OC,9.69%
18,COCCNC(=O)CC(NS(=O)(=O)c1ccc(C)cc1)c1ccco1 (stereo not drawn),11.4%
19,Cc1ccc(C)c(N2CCN(C(=O)C(Cc3ccccc3)n3cccc3)CC2)c1 (stereo not drawn),8.63%
20,O=[N+]([O-])c1ccc(CSc2nc3ncc(Br)cc3[nH]2)cc1,12.7%
21,C/C(=C\C(=O)c1ncc(C(F)(F)F)cc1Cl)N(C)C,10.7%
22,O=C(NNS(=O)(=O)c1ccc(F)cc1)c1ccc(S(=O)(=O)N2CCCCC2)cc1,-4.46%
23,CCOC(=O)c1c(C)[nH]c(C(=O)OCC(=O)N2CCN(S(=O)(=O)c3ccccc3)CC2)c1C,12.4%
24,ClCc1c2ccccc2cc2ccccc12,6.36%
25,COc1ccc(CCSc2nnc(C3CCCCC3)n2N)cc1,-0.986%
26,C[C@H]1O[C@@H](n2cc(F)c(=O)[nH]c2=O)[C@H](O)[C@@H]1O,2.33%
27,CC(C(=O)NCCN1CCOCC1)c1ccc([N+](=O)[O-])cc1 (stereo not drawn),15.3%

row,Structure (SMILES),"hERG current change (%, negative = inhibition) at 1uM"
1,O=C(CCc1c[nH]c2ccccc12)N[C@@H](Cc1c[nH]c2ccc(O)cc12)C(=O)O,13.3%
2,COc1ccc(NC(=O)c2cc(S(=O)(=O)N3CCCCC3)c[nH]2)cc1,5.15%
3,O=C(CCc1nnc2ccc(NCc3ccccc3)nn12)N1CCC2(CC1)OCCO2,11%
4,CCN(CC(=O)NCc1ccc(Cl)cc1)C(=O)/C=C/c1cccs1,-9.59%
5,COc1ccc(NC(=O)CN(C)Cc2cccs2)cc1Cl,5.99%
6,COc1ccc(Cl)cc1C(=O)N(Cc1nc(-c2cccc(C)c2)no1)C(C)C,2.82%
7,O=C(COC(=O)CSc1cc(Cl)ccc1Cl)Nc1ncc(C(F)(F)F)cc1Cl,5.04%
8,CCn1c(SCC(=O)N2CCCCC2)nnc1-c1ccc(S(=O)(=O)N2CCN(C)CC2)cc1,-0.867%
9,Nc1cc(=O)[nH]c(SCC(=O)Nc2cccc(Cl)c2Cl)n1,9.56%
10,O/N=C1\CC/C(=N\O)c2nn(-c3ccc(Cl)cc3Cl)nc21,3.01%
11,Cc1cccc(N2CCN(C(=O)c3nn(C)c4c3CS(=O)(=O)c3ccccc3-4)CC2)c1C,4.53%
12,COc1ncccc1C(=O)NC1CCCc2c1cnn2-c1cc(C)cc(C)c1 (stereo not drawn),2.61%
13,COc1c(S(=O)(=O)n2nc(C)cc2C)ccc(Cl)c1Cl,-7.5%
14,CCOC(=O)c1cc(C)sc1NC(=O)CSC1=NCCS1,5%
15,CCc1ccc(NC(=O)c2cc3c(C)nc4ccccc4c3o2)cc1,4.7%
16,Cc1ccc(-c2nnc(-c3ccc(NC(=O)Cc4cccs4)cc3)o2)cc1,1.32%
17,C/C(=C\C(=O)c1ccccc1)NCc1ccc(F)cc1,10%
18,CC(C)(C)c1cc(=O)[nH]c(SCc2ccccc2)n1,20.5%
19,CCOC(=O)Cc1csc(NC(=O)Nc2ccc(Cl)cc2)n1,11.8%
20,CCOC(=O)C1CCN(c2c(NCc3ccc(C(=O)NCCOC)cc3)c(=O)c2=O)CC1,0.388%
21,COc1ccc2oc(C(=O)NC3(C)CCS(=O)(=O)C3)c(C)c2c1 (stereo not drawn),8.86%
22,COc1ccc([C@@H]2[C@@H]3C(=O)N(C(C)(C)C)C(=O)[C@@H]3[C@]3(C)C(=O)N(c4cccc(Cl)c4)C(=O)N23)cc1,12.1%
23,COc1cc(C(=O)Nc2ccccc2NC(=O)c2cc(OC)c(OC)c(OC)c2)cc(OC)c1OC,9.73%
24,O=C1C(=O)N(c2ccccc2)C(c2ccccc2[N+](=O)[O-])/C1=C(\O)c1ccccc1 (stereo not drawn),7.37%
25,O=[N+]([O-])c1cccc(C2=NCCC(c3ccccc3)O2)c1 (stereo not drawn),1.93%
26,COc1ccc(C(CNC(=O)c2ccc(OCC3CCCO3)cc2)N2CCOCC2)cc1 (stereo not drawn),14.8%
27,CCCCNC(=O)Cn1c(=O)c2c(ncn2CCC(C)C)n(Cc2ccccc2)c1=O,14.1%
